Assay results taken from PubChem BioAssay AID1030 (National Center for Advancing Translational Sciences (NCATS), 2008).
The campaign covered roughly 220,000 compounds. About 16,000 (7.3%) were called active. Inconclusive results, whose numbers are uncertain, are shown with a selection of clear calls. Calls follow the shape of the dose curve; as a rule, active = well fitted inhibition curve with a large enough effect (not every such curve was filed as active); inconclusive = small, poorly fitted or top-dose-only effect, or another doubt; inactive = no such curve, though single readings can be large or run the other way. No potency is given beside an inconclusive call; the fits are too rough.

The compounds below were run against Aldehyde dehydrogenase 1A1 (Homo sapiens) (UniProt P00352) (assay: qHTS Assay for Inhibitors of Aldehyde Dehydrogenase 1 (ALDH1A1)). Conditions: Purified ALDH1A1, NADH fluorescence, propionaldehyde substrate; series mostly up to 75.3 µM.
Sequence of UniProt P00352 (P00352 whole entry, looked up): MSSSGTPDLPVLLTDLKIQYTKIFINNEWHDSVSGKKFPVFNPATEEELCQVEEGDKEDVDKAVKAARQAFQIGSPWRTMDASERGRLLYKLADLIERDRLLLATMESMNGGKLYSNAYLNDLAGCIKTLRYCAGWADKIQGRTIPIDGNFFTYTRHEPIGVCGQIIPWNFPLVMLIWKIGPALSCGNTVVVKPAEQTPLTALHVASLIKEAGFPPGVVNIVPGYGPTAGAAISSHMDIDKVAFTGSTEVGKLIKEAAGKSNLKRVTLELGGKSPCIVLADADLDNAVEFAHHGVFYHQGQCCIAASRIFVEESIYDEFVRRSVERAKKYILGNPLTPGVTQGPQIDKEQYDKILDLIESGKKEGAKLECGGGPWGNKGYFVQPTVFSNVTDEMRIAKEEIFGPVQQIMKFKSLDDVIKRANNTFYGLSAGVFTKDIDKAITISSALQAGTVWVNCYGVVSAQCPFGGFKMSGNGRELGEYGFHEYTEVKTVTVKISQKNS

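For activity, negative = inhibition in this document: plate controls were no enzyme wells and a reference inhibitor.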
Potency is read from the fitted curve at half-maximal effect; tags tell the direction and shape of the fitted curve.

For `COCCN(CCOC)c1nc(C)nc2c1nc(-c1ccccc1)n2CCCN1CCCCC1C` (configuration not stated), which Potency is on record?
The Potency was inconclusive [inhibitor, single point].

For `CCOc1ccc(-c2nc(C)c(C(C)=O)n2O)cc1`, which Potency is on record?
Its Potency is inconclusive [inhibitor, single point].

For `O=C(NOC(=O)c1ccccc1Cl)c1cccs1`, which Potency is on record?
Its Potency is inconclusive [inhibitor, single point].

For `CC(=O)C1CCC2C3CC(C)C4=CC(=O)CC[C@@]4(C)C3C(O)C[C@@]12C` (some centres not stated), which Potency is on record?
Its Potency is “inactive”.

For `CCN(CC(=O)Nc1sc2c(c1C#N)CCCC2)CC(=O)NC1CCS(=O)(=O)C1` (configuration not stated), which Potency is on record?
Its Potency is inconclusive [inhibitor, single point].

For `C=CCOc1ccc(-c2n[nH]c(=S)o2)cc1`, which Potency is on record?
The Potency was inconclusive [inhibitor, partial curve].

Which Potency does the source give for `Cc1ccc(O)c(CCc2ccccc2)n1` here?
The Potency was inconclusive [inhibitor, single point].

How did the Potency turn out when `COc1cc(/C=C/C(=O)c2c(O)ccc3c(C)cc(=O)oc23)ccc1O` was run?
The Potency was “inactive”.

With `COc1ccc(-n2c(Cc3cccn3C)nnc2SCC(=O)Nc2ccc(F)cc2F)cc1` as the compound, how does the Potency read?
Its Potency is active: 10 µM.

How did the Potency turn out when `CC1=C(C)CC(C(=O)Nc2cccc([N+](=O)[O-])c2)C(C(=O)O)C1` (configuration not stated) was run?
The Potency was inconclusive [inhibitor, single point].

For `CC(C)NC(=O)NC(=O)COC(=O)c1cccc(S(=O)(=O)N2CCCCC2)c1`, which Potency is on record?
Its Potency is “inactive”.

For `O=c1c(CCc2ccccc2)nc2cnc(Oc3ccccc3)nc2n1C[C@H]1CCCO1`, which Potency is on record?
Its Potency is inconclusive [inhibitor, partial curve].

For `COc1ccccc1C1CC(=O)Oc2cc(C)c(Br)c(C)c21` (configuration not stated), which Potency is on record?
The Potency was inconclusive [inhibitor, partial curve, poor fit].

How did the Potency turn out when `CCC1(CC)NC(=O)N(CC(=O)OCC(=O)NC(=O)c2ccc(Cl)cc2)C1=O` was run?
Its Potency is inconclusive [inhibitor, single point].

For `CC1=C(C(N)=O)C(c2cccnc2)n2nc(-c3cccc(C)c3)nc2N1` (configuration not stated), which Potency is on record?
Its Potency is inconclusive [inhibitor, single point].

How did the Potency turn out when `Cc1nnc(SCC(=O)N2CCOCC2)[nH]c1=O` was run?
The Potency was “inactive”.

Which Potency does the source give for `O=C(Nc1cccc(F)c1)/C(=C\c1cccnc1)NC(=O)c1ccco1` here?
The Potency was “inactive”.

For `O=C(O)c1cc(NS(=O)(=O)c2cccc3ccccc23)ccc1O`, which Potency is on record?
Its Potency is inconclusive [inhibitor, partial curve].

How did the Potency turn out when `O=C(c1cnc2n(c1=O)CCS2)N1CCN(c2ccc([N+](=O)[O-])cc2)CC1` was run?
Its Potency is inconclusive [inhibitor, single point].

How did the Potency turn out when `CCCOc1cc(N(CC)CC)ccc1/C=C(/C#N)c1nc2ccc(C)cc2[nH]1` was run?
Its Potency is inconclusive [inhibitor, partial curve].

Which Potency does the source give for `COC(=O)C1=C(Nc2ccc(OC)cc2)C=C(C)C(C(=O)OC)C1c1ccc(C)cc1` (configuration not stated) here?
Its Potency is inconclusive [inhibitor, partial curve].

With `COc1ccc(Oc2ncc3nc(-c4cccs4)c(=O)n(Cc4cccc(OC)c4)c3n2)cc1` as the compound, how does the Potency read?
The Potency was inconclusive [inhibitor, partial curve].

For `Cc1cc(N2CCOCC2)nc2ccc(NC(=S)N3CCN(Cc4ccccc4)CC3)cc12`, which Potency is on record?
The Potency was “inactive”.

How did the Potency turn out when `COc1ccccc1N1CCN(C(=O)c2sc3nc(-c4ccccc4)cn3c2C)CC1` was run?
Its Potency is “inactive”.

With `O=C(/C=C/c1cccs1)c1ccc(NC(=O)c2cccc(Br)c2)cc1` as the compound, how does the Potency read?
Its Potency is inconclusive [inhibitor, single point].

Which Potency does the source give for `Nc1nnc(CSCc2ccccc2)s1` here?
The Potency was “inactive”.

With `COc1ccc(S(=O)(=O)Nc2cccc(S(=O)(=O)N3CCCCCC3)c2)cc1` as the compound, how does the Potency read?
The Potency was inconclusive [inhibitor, partial curve].

For `CCc1ccc(OCCCC(=O)Nc2ccc(S(N)(=O)=O)cc2)cc1`, which Potency is on record?
Its Potency is “inactive”.

`O=C(NC1CS(=O)(=O)CC1NCc1ccco1)c1ccccc1` (configuration not stated) was tested. Which Potency did it give?
Its Potency is “inactive”.

For `CCOC(=O)CSc1cc(C)nc(NC(C)=O)n1`, which Potency is on record?
Its Potency is “inactive”.

For `CO[C@H]1COC(=O)CCC[C@H](C)[C@@H](OC)COC(=O)C/C=C\[C@@H]1C`, which activity, negative = inhibition is on record?
The activity, negative = inhibition was inactive: 12% [at 13.5 µM].

`CCN(c1ccc(NC(=O)COC(=O)c2cccs2)cc1)C(C)C` was tested. Which Potency did it give?
The Potency was inconclusive [inhibitor, single point].

For `C=C1c2cccc(C(F)(F)F)c2O[C@H](C(=O)OCC)C1OC` (mixture of isomers), which Potency is on record?
The Potency was “inactive”.

`Cc1cc(C(=O)NCc2cccnc2)cs1` was tested. Which Potency did it give?
Its Potency is “inactive”.

With `O=C(Nc1cccc(F)c1)N1CCCC2(CCN(C(=O)c3ccco3)CC2)C1` as the compound, how does the Potency read?
The Potency was inconclusive [inhibitor, single point].

For `COc1cccc(-c2cc(NCc3ccc(OC)cc3OC)ncn2)c1`, which Potency is on record?
Its Potency is inconclusive [inhibitor, single point].

Which Potency does the source give for `CC1CCC(NC(=O)C2CC(=O)N(c3ccc4c(c3)OCCO4)C2)CC1` (configuration not stated) here?
The Potency was “inactive”.

With `CC(c1c(O)c2ccccc2[nH]c1=O)C1(C)CCC(O)C(C)(C)O1` (configuration not stated) as the compound, how does the Potency read?
Its Potency is “inactive”.

With `O=C(COC(=O)c1cccnc1)NC1CCCc2ccccc21` (configuration not stated) as the compound, how does the Potency read?
The Potency was “inactive”.

For `Nc1nc(NC(=O)C(Cl)(Cl)Cl)nn1-c1ccccc1`, which Potency is on record?
The Potency was inconclusive [inhibitor, single point].

For `Cc1ccccc1C(=O)Nc1ccccc1C(=O)NCC(C)C`, which Potency is on record?
Its Potency is inconclusive [inhibitor, partial curve].

`COCCNC(=O)C(c1ccc(F)cc1)N(CCOC)C(=O)CCC(=O)Nc1nccs1` (configuration not stated) was tested. Which Potency did it give?
The Potency was “inactive”.

Which Potency does the source give for `Cc1ccccc1C(=O)NCc1nnc(SCC(=O)N2CCN(c3ccccc3)CC2)n1C` here?
The Potency was active: 10 µM.

Which Potency does the source give for `O=C(c1ccc(Cl)c(F)c1F)N1CCCC1` here?
Its Potency is “inactive”.

How did the Potency turn out when `COc1cccc(-c2cc3nc(-c4ccccc4)cc(N4CCC5(CC4)OCCO5)n3n2)c1` was run?
The Potency was inconclusive [inhibitor, partial curve].

How did the Potency turn out when `Cc1ccc(N(CC(=O)NN=C2CCN(C)CC2)S(=O)(=O)c2ccc(C)cc2)cc1` was run?
Its Potency is inconclusive [inhibitor, single point].

`CN1CCN(C(=S)NC(=O)/C=C/c2cccs2)CC1` was tested. Which Potency did it give?
The Potency was inconclusive [inhibitor, single point].
